Results from article PMC4336329 (PLoS ONE, 2015).
Out of some 310,000 compounds screened, about 2,200 (0.71%) showed an effect of 50% or more. The effect is printed as a negative number. This is one part of the list.

Target: human ether-à-go-go-related gene (hERG) potassium channel (human, UniProt Q12809)
Test: primary screen, population patch clamp on CHO cells stably expressing hERG

Chain of human ether-à-go-go-related gene (hERG) potassium channel (Q12809 whole entry, looked up): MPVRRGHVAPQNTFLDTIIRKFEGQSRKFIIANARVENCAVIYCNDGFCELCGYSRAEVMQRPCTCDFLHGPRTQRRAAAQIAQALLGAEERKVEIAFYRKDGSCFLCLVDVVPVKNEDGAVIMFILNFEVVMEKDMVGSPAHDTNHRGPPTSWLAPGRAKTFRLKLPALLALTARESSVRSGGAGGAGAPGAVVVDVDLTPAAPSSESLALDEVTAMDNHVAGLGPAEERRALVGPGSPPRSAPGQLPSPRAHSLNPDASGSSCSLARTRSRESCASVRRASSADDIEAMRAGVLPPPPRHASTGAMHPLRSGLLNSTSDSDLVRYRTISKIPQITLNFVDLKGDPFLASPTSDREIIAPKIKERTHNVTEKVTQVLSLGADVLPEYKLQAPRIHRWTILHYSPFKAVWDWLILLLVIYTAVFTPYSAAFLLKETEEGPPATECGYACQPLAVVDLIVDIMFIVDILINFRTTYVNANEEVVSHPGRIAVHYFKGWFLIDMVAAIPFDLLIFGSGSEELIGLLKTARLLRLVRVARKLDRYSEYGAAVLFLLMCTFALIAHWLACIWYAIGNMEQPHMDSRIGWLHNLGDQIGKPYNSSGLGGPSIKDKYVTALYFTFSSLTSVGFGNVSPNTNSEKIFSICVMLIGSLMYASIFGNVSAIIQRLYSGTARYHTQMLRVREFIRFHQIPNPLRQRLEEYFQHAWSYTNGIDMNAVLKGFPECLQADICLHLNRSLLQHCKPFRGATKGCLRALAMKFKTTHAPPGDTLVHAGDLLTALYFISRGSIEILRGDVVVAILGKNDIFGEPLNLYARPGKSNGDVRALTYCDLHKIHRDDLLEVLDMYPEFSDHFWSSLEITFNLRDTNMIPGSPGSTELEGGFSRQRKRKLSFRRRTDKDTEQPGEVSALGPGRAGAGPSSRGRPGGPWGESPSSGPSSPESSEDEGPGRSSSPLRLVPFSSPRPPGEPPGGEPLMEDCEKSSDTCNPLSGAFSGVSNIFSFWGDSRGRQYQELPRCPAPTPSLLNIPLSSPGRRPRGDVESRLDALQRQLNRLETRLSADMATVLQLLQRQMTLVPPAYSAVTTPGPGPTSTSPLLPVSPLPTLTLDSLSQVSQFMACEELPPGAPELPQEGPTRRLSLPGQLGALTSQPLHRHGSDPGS

SMILES | hERG current change (%, negative = inhibition) at 1uM [%]
Cn1ccsc1=NC(=O)c1ccc(=O)[nH]c1 | 11.1
CCCCOc1c(Br)cc(/C=N/O)cc1OCC | 7.85
O=S(=O)(c1ccc2ccccc2c1)N(CC(O)COCc1ccco1)c1ccccc1 (centres unmarked) | 11.7
COc1ccc(C2C3=C(CC(C)(C)CC3=O)Oc3ncn(Cc4ccccc4)c(=N)c32)cc1 (centres unmarked) | -1.76
CN1CC(c2ccccc2)Oc2ccccc2C1=S (centres unmarked) | 6.76
O=C(CCc1ccc(S(=O)(=O)N2CCOCC2)cc1)NCCc1ccccn1 | -8.64
O=C(O)c1sccc1Oc1ccc(NS(=O)(=O)c2cccc(F)c2)cc1 | 18.3
O=C(Nc1ccccc1)C1CCN(C(=O)c2ccc([N+](=O)[O-])cc2)CC1 | -67
COc1ccc(-n2nc(C(=O)NCC(=O)NC(C)C)c3ccccc3c2=O)cc1Cl | 9.57
CCCCn1nc(C(=O)NCC2COc3ccccc3O2)c2ccccc2c1=O (centres unmarked) | 0.585
CC(C)(C)c1cc(C(=O)NNS(=O)(=O)c2ccccc2)n[nH]1 | 14.1
S=c1nc(-c2ccccc2)[nH]c2ccccc12 | 11.5
CCCCOc1ccc(/C=C/C(=O)N(CC)CC(=O)Nc2ccc3c(c2)OCCO3)cc1OC | 1.75
COc1ccc(-c2oc3cccnc3c2/C=C/c2ccc(OC)c(OC)c2)cc1 | 14.9
Cc1nc([N+](=O)[O-])cn1CC(=O)Nc1ccc(F)c(Cl)c1 | 19.9
CCOc1ccc(NC(=O)Nc2nc3ccc(S(C)(=O)=O)cc3s2)cc1 | 12
Cc1cccn2c(=O)c(C=O)c(N3CCCCCC3)nc12 | 0.0965
COC(=O)c1ccc(S(=O)(=O)NC(C)(C)C)n1C | 20.5
COc1ccc(C(=O)NC=C2C(=O)OC(C)(C)OC2=O)cc1 | 6.6
CC1CCCCC1NC(=O)CCn1c(=O)sc2ccccc21 (centres unmarked) | 18
COc1ccc(-n2c(Cc3cc(=O)[nH]c(=O)[nH]3)nnc2SCC(=O)N2CCC(C)CC2)cc1 | 6.65
S=C(c1ccc[nH]1)N1CCOCC1 | 17.6

SMILES | hERG current change (%, negative = inhibition) at 1uM [%]
O=C(Nc1ccccc1)c1ccc(Cn2cc(C(F)(F)F)ccc2=O)cc1 | 0.918
CCOc1ccccc1NC(=O)c1ccc(S(=O)(=O)N(C)C)cc1 | -9.19
COc1ccc(Nc2nc(N3CCN(S(=O)(=O)N(C)C)CC3)nc3ccccc23)cc1 | 3.21
COc1ccc(N(Cc2ccccc2)S(=O)(=O)c2cccc(C(=O)O)c2)cc1 | 9.52
N=c1oc2ccc3ccccc3c2cc1C(N)=S | 14.6
CSc1ccccc1OCc1cc(C(=O)NCc2cccc(C)n2)no1 | 11.9
CC(=O)Nc1ccc(SCc2csc(C)n2)cc1 | 12.4
CN(C)c1ccc(/C=N/NC(=O)Cn2nnc3ccccc32)cc1 | 3.83
CC1(C)NC(=O)N(CC(O)COc2ccc(N3C(=O)c4ccccc4C3=O)cc2)C1=O (centres unmarked) | 6.05
CC(=O)Nc1cccc(NC(=O)C2C3C=CC(C3)C2C(=O)O)c1 (centres unmarked) | 7.91
O=C(NC1CCN(S(=O)(=O)c2ccccc2F)CC1)c1ccco1 | 5.85
CCCn1c(N)c(Sc2ccc([N+](=O)[O-])cc2)c(=O)n(CCC)c1=O | -26.4
O=C(NC1CCN(C(=S)NCCc2ccccc2)CC1)C1CC1 | 9.63
O=C(Nc1nnc(SCCC2OCCO2)s1)C1CC(=O)N(c2ccccc2)C1 (centres unmarked) | -31.5
Cc1cccc(NC(=O)C2C(C(=O)O)C3C=CC2C32CC2)c1C (centres unmarked) | 7.58
COc1cc(-c2cc(C(=O)Nc3ccc(N4CCOCC4)cc3)c3ccccc3n2)cc(OC)c1OC | 6.59
CC(C)NC(=O)c1onc(CSc2ccc(Cl)cc2)c1C(=O)NC(C)C | 9.83
CC(=O)c1ccc(N2CCN(C(=O)c3cn(Cc4ccccc4)nc3-c3cccnc3)CC2)c(F)c1 | -19.1
CCOC(=O)N1CCN(C(=O)c2ccccc2-c2ccccc2)CC1 | 21
COc1ccc(C(=O)CSc2cc(C)nc(SCC(=O)c3ccc(C)cc3)n2)cc1 | 10.9
CC(C)(C)c1ccc(/C=C/C(=O)O)s1 | 9.11
Oc1ccc(/C=C/c2ccnc3ccccc23)cc1 | 13.1
